Measured values taken from PMC10668032.
The other results are listed elsewhere or left out. At the low end of the ranking the order means little.

Target: SIX1 homeodomain (reference allele) (UniProt Q15475)
Assay: universal protein binding microarray
Conditions: Universal all-10-mer PBM (8x60K, AMADID 030236), 300 nM GST-tagged protein, Alexa Fluor 488 anti-GST; buffer, salt, pH and temperature not stated; high values mean tight binding; most listed sequences are background and not binding sites; double strand, one strand shown

Row | Sequence | binding signal [E-score]
1 | CCACAATA | 0.138
2 | GTGACAAA | 0.136
3 | CCAAAAGC | -0.223
4 | TACACGAA | 0.0502
5 | AATCCTCT | 0.0262
6 | ACTGCAGA | -0.269
7 | ACCAAATC | 0.0654
8 | AAATACAG | -0.0588
9 | ATAATTAC | -0.0249
10 | CAGCATCA | 0.131
11 | CAACTCCC | -0.109
12 | CGCCTACG | -0.148
13 | CTGTGTTC | -0.199
14 | ATAAGGAA | -0.169
15 | CTCCACTA | 0.0286
16 | ATGTACAC | 0.125
17 | AGTGGCCA | -0.0931
18 | CCAGTAAC | -0.0929
19 | CGGACTTC | -0.243
20 | ATCGCCTC | 0.216
21 | GCATGAAC | -0.159
22 | TATGGGGA | 0.232
23 | CCGCGGGA | 0.103
24 | AATTCTCT | -0.329
25 | ACGGTCCG | -0.135

Row | Sequence | binding signal [E-score]
26 | ATGCTTCC | -0.145
27 | AAGACCGC | -0.0943
28 | CGTGTCTA | 0.11
29 | CTAAGGCC | -0.173
30 | CGTCAGCA | -0.179
31 | AAAACTGA | -0.134
32 | CATCATTC | -0.051
33 | GACTGTAA | -0.142
34 | AGCTGTAC | -0.0975
35 | CCGACCAG | -0.0115
36 | CGATGGTC | -0.111
37 | GACAAACC | -0.181
38 | AGCCAATG | -0.0313
39 | TGATACCA | 0.481
40 | CAGAGGGC | -0.263
41 | GCTTTGAA | -0.148
42 | AACGACGT | -0.235
43 | GTGCGCAC | -0.131
44 | CTGCGAGA | -0.0804
45 | GGGAGTAC | 0.0436
46 | CATTGCCC | -0.155
47 | CTCTCCCA | -0.22
48 | ACCGATAT | 0.396
49 | CCAGAAGA | -0.112
50 | AGTGGCAG | -0.248

Row | Sequence | binding signal [E-score]
51 | GAGGGTAA | 0.00963
52 | CAATATTC | 0.104
53 | CCACTAAA | -0.146
54 | CATGTTGC | -0.248
55 | CAGGGGGG | -0.162
56 | GTTTCCGA | -0.0597
57 | CTTCACGC | -0.0507
58 | CCTTTCCA | -0.012
59 | CAGACAGC | -0.218
60 | AGAGTAAA | -0.0531
61 | ATAGATCC | 0.302
62 | CGTTATAG | 0.0166
63 | GACCACAC | -0.081
64 | GCTAAAAA | -0.2
65 | GAGCAGCC | -0.123
66 | AGCGATCC | 0.356
67 | ATATAACC | 0.177
68 | CTGTAAAC | -0.173
69 | CCCGGATC | 0.45
70 | CAAATGTA | -0.0333
71 | CAAAGCTC | -0.158
72 | CAACCAGG | -0.108
73 | GGTACCAA | -0.0758
74 | GTGGTTGA | -0.296
75 | ATGGTCCG | 0.00411

Row | Sequence | binding signal [E-score]
76 | ATGTTCGG | -0.101
77 | CAACTGTA | -0.0799
78 | AGCTTCGG | -0.0517
79 | ACCGACCA | -0.0186
80 | TCACGGGA | -0.0241
81 | AGCGTCAT | -0.0435
82 | AAGTATCC | 0.388
83 | ATTTTAGC | -0.116
84 | CTCCAAGC | -0.0977
85 | ATCATGAT | 0.398
86 | GCCGGTAC | -0.0205
87 | GATCAAGA | 0.191
88 | CGTTAAGC | -0.11
89 | CTCTTCAG | -0.164
90 | ATTCTGGG | -0.0634
91 | AATATACA | 0.222
92 | GAGAACCA | 0.0679
93 | AGTCCACG | -0.171
94 | AGATCTAA | 0.116
95 | ACCTTGCT | -0.0389
96 | CTTCGTTA | -0.151
97 | AGTCCGGG | -0.143
98 | ACTCCGGG | 0.0872
99 | AGAAGTAT | 0.297
100 | GGCCCCAA | -0.245

Row | Sequence | binding signal [E-score]
101 | ACCCACCT | -0.115
102 | AAGCCTAT | 0.144
103 | ACACATGG | -0.194
104 | CATCGGCC | -0.144
105 | AACCAAAA | 0.00971
106 | ATACCGCG | 0.377
107 | ACTTTGTC | -0.25
108 | ACAAAGCG | -0.22
109 | TCGGGCAA | -0.116
110 | CCCGCCCA | 0.0698
111 | CTATACGA | 0.18
112 | CACCAGTC | -0.0772
113 | CGTGACTC | -0.231
114 | CAAGCTAC | -0.0824
115 | GTGAGAGA | -0.0326
116 | AACATTTG | -0.251
117 | GACCCAAC | -0.144
118 | GCTGGAGA | -0.0773
119 | ATGACGTC | 0.0387
120 | AAACCAGA | 0.104
121 | AGTCAAAA | -0.236
122 | GATTCCGC | -0.00161
123 | GAGTCATA | 0.0868
124 | CAATAGAC | -0.131
125 | GCTCTACC | -0.182

Row | Sequence | binding signal [E-score]
126 | ACATGTGG | -0.133
127 | TAAGCTAA | -0.0876
128 | ATGCTACA | -0.0248
129 | GAAATAAA | -0.0748
130 | ATAGCTGC | 0.118
131 | CGTGGCAG | -0.222
132 | GGTCGTAC | -0.0215
133 | CAACACCC | 0.24
134 | ATCTGGTC | 0.121
135 | GAAGCTCC | -0.205
136 | ATTAAAAA | -0.0117
137 | ATTGTGGA | 0.196
138 | TAGTGAGA | 0.203
139 | ATCTTAAA | -0.0453
140 | AACGTCTT | -0.215
141 | ACGGTCTG | -0.0678
142 | CTACGTTC | -0.276
143 | GATGCGAA | -0.12
144 | CGACGTAA | -0.104
145 | AAAAGGAC | -0.317
146 | AAATCTCA | -0.065
147 | ATATACTA | 0.256
148 | CATAAACA | -0.134
149 | CTGGAGGC | -0.134
150 | CTTGACGC | -0.132

Row | Sequence | binding signal [E-score]
151 | GAATATTA | 0.104
152 | AAAAGGCT | -0.0604
153 | GTGCCCGA | 0.0238
154 | ATGTCCGG | -0.139
155 | AGCATAAA | -0.178
156 | CAGGGCCG | -0.14
157 | AGGCCAAG | -0.118
158 | CCTGACTC | -0.207
159 | CCGAGGAA | -0.0467
160 | AGTCAAAT | -0.193
161 | ATTGTGTG | 0.0142
162 | CCTGAATC | 0.0856
163 | GAGGTCTA | -0.00498
164 | ACCTGGAA | -0.0904
165 | AACATACG | 0.0216
166 | CAACCGTA | -0.247
167 | CCCTTGAG | 0.0543
168 | GGAGTGAC | -0.104
169 | ATTGGACC | -0.028
170 | AGCTATTA | -0.0731
171 | ATCCGCGG | 0.305
172 | GCATTGCA | -0.0415
